Measurements reported in paper PMC12592532.
Results are given in words; binding and its absence hold for the method and conditions named. For part of these data: In cells and extracts the contact can be indirect. Some results given as binding are weak or reduced against the parent protein; the word gives no strength. For part of these data: Tags and fused reporters may be left off the sequences shown.

Amino acid sequences for entries named in this document (tags omitted).
UniProt Q9BPZ7: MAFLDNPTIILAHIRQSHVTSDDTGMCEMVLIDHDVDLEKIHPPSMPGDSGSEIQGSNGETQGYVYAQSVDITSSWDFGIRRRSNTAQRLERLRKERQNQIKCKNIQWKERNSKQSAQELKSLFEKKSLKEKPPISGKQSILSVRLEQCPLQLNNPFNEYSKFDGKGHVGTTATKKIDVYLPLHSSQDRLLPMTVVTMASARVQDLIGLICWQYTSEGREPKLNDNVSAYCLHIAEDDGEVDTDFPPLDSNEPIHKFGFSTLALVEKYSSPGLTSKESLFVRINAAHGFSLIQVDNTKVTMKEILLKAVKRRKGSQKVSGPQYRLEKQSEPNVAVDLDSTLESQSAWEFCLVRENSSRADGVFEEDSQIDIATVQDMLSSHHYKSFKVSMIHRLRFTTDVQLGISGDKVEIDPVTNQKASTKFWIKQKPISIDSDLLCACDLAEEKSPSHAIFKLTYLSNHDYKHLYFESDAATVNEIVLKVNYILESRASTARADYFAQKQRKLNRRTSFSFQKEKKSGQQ
UniProt Q8N122: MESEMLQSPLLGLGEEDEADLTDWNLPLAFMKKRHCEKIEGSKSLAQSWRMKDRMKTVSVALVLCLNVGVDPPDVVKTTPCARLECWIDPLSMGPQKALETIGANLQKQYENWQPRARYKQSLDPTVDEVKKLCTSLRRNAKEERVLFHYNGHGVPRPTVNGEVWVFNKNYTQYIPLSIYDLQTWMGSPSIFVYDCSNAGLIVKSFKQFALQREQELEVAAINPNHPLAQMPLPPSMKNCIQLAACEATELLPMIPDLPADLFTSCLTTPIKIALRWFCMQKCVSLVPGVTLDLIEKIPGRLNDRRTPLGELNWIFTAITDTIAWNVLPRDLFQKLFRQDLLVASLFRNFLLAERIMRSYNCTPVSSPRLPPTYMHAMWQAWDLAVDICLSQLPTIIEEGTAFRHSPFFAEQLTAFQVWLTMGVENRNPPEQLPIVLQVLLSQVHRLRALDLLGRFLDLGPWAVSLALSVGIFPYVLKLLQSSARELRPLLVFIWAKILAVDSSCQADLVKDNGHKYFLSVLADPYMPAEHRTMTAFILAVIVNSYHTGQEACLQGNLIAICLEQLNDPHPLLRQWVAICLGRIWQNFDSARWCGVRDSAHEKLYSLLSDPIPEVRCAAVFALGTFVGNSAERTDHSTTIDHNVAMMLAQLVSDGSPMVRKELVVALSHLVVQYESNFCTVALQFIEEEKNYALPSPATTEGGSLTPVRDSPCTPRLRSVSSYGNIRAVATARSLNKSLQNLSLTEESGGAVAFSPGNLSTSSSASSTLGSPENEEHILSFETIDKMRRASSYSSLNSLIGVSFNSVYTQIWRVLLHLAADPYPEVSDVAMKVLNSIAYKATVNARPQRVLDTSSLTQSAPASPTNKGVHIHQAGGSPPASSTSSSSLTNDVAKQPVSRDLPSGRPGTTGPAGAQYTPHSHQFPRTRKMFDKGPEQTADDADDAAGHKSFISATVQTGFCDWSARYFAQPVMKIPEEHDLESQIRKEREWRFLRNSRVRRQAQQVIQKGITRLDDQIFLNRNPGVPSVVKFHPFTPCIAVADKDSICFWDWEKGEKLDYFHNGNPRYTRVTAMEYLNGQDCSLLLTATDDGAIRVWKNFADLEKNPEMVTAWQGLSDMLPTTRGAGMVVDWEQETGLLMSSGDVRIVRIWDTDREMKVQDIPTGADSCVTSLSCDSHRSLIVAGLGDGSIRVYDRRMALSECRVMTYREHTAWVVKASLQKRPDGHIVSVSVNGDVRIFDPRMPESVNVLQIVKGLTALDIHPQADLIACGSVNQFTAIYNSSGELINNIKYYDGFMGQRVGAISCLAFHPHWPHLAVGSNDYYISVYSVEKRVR
UniProt Q6R327: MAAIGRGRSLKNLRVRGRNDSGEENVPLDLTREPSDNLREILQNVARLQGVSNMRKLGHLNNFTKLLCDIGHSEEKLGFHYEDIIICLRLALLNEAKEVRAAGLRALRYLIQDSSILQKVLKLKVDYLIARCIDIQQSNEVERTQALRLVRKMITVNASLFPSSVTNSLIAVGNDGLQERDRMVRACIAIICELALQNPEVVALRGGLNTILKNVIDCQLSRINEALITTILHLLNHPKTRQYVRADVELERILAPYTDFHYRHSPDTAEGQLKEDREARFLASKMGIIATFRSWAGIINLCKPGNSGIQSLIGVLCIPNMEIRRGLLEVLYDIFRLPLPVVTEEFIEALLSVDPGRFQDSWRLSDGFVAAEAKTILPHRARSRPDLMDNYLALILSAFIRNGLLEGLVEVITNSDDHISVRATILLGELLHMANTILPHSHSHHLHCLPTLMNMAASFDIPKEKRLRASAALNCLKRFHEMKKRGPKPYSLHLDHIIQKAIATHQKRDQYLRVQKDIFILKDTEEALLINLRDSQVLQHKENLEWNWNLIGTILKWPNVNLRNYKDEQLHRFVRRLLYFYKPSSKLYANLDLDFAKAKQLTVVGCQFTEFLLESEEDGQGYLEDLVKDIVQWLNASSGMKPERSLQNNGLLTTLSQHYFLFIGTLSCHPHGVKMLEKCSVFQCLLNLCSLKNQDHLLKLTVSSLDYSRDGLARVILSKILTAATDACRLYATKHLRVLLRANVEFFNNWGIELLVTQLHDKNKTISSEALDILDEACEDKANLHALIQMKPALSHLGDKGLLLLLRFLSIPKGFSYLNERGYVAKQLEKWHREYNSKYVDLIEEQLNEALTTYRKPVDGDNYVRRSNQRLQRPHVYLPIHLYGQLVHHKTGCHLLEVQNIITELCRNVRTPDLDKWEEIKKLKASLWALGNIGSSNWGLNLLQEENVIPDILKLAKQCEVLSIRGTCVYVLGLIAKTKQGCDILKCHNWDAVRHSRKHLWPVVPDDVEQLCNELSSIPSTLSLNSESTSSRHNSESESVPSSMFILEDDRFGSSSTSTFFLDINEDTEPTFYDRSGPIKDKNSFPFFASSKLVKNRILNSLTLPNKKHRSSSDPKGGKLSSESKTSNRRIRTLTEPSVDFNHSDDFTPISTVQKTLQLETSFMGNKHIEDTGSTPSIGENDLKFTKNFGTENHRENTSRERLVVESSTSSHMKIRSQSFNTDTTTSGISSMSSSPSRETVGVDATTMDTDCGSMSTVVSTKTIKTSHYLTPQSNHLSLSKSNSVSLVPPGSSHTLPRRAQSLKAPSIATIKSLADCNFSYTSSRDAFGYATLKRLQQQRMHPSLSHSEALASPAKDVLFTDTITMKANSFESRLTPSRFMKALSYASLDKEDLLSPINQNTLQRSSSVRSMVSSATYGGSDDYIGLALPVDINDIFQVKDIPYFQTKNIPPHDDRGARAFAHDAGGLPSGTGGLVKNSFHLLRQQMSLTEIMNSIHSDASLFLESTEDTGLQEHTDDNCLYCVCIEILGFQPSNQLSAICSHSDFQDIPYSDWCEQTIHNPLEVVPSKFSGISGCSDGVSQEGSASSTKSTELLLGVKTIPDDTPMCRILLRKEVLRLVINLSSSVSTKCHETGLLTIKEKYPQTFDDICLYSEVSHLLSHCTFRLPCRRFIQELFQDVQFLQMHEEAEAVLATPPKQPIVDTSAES

How the values were obtained:
[1] = molecular target: GST-mSIN (UniProt Q9BPZ7); experiment: pull-down; GST or GST-mSIN immobilised on glutathione sepharose 4B beads, incubated with bacterially purified MBP-PTPN22 (2–2.5 µg), 2 h at 4 °C; immunoblot anti-MBP (Fig. 3D); both purified
[2] = molecular target: SFB-PRAS40 (UniProt Q96B36); experiment: pull-down; HEK293T co-transfected with SFB-tagged mTORC1/mTORC2 components and Myc-PTPN22; 0.3% CHAPS buffer; S-protein agarose beads, immunoblot anti-Myc (Fig. 1E)
[3] = molecular target: SFB-RAPTOR (UniProt Q8N122); experiment: as above
[4] = molecular target: SFB-RICTOR full length (FL) (UniProt Q6R327); experiment: as above
[5] = molecular target: SFB-mSIN1 full length (UniProt Q9BPZ7); experiment: as above
[6] = molecular target: SFB-mSIN1 full length (UniProt Q9BPZ7); experiment: pull-down; HEK293T cells with stable knockdown of RICTOR, co-transfected with one SFB-tagged and one Myc-tagged protein (PTPN22 and mSIN); 1% Triton X-100 buffer; S-protein agarose beads, immunoblot anti-Myc (Fig. 4B, 4G)
[7] = molecular target: SFB-RICTOR full length (FL) (UniProt Q6R327); experiment: pull-down; HEK293T cells with stable knockdown of mSIN, co-transfected with one SFB-tagged and one Myc-tagged protein (PTPN22 and RICTOR); 1% Triton X-100 buffer; S-protein agarose beads, immunoblot anti-Myc (Fig. 4C, 4H)
[8] = molecular target: MBP-mSIN (UniProt Q9BPZ7); experiment: pull-down; MBP or MBP-mSIN immobilised on dextran sepharose beads, incubated with bacterially purified GST-AKT (0.5 µg) in the presence of recombinant His-PTPN22 or equal volume of buffer, 1 h at 4 °C; immunoblot with AKT antibody (Fig. EV4F,G); both purified
[9] = molecular target: mSIN1 (mammalian stress-activated protein kinase interacting protein) (human (endogenous in Jurkat, HEK293T, HCT116)) (UniProt Q9BPZ7); experiment: co-IP; endogenous proteins; Jurkat cells lysed in 0.3% CHAPS buffer; IP with control IgG or anti-mSIN antibody, immunoblot (Fig. 1C)

B1: MBP-PTPN22 (protein, UniProt Q9Y2R2 1-807)
chain: MDQREILQKFLDEAQSKKITKEEFANEFLKLKRQSTKYKADKTYPTTVAEKPKNIKKNRYKDILPYDYSRVELSLITSDEDSSYINANFIKGVYGPKAYIATQGPLSTTLLDFWRMIWEYSVLIIVMACMEYEMGKKKCERYWAEPGEMQLEFGPFSVSCEAEKRKSDYIIRTLKVKFNSETRTIYQFHYKNWPDHDVPSSIDPILELIWDVRCYQEDDSVPICIHCSAGCGRTGVICAIDYTWMLLKDGIIPENFSVFSLIREMRTQRPSLVQTQEQYELVYNAVLELFKRQMDVIRDKHSGTESQAKHCIPEKNHTLQADSYSPNLPKSTTKAAKMMNQQRTKMEIKESSSFDFRTSEISAKEELVLHPAKSSTSFDFLELNYSFDKNADTTMKWQTKAFPIVGEPLQKHQSLDLGSLLFEGCSNSKPVNAAGRYFNSKVPITRTKSTPFELIQQRETKEVDSKENFSYLESQPHDSCFVEMQAQKVMHVSSAELNYSLPYDSKHQIRNASNVKHHDSSALGVYSYIPLVENPYFSSWPPSGTSSKMSLDLPEKQDGTVFPSSLLPTSSTSLFSYYNSHDSLSLNSPTNISSLLNQESAVLATAPRIDDEIPPPLPVRTPESFIVVEEAGEFSPNVPKSLSSAVKVKIGTSLEWGGTSEPKKFDDSVILRPSKSVKLRSPKSELHQDRSSPPPPLPERTLESFFLADEDCMQAQSIETYSTSYPDTMENSTSSKQTLKTPGKSFTRSKSLKILRNMKKSICNSCPPNKPAESVQSNNSSSFLNFGFANRFSKPKGPRNPPPTWNI
In the case of B1, the binding [1] is reported as “binds”.

B2: Myc-PTPN22 (protein, UniProt Q9Y2R2 1-807)
chain: B1 chain
With B2 the binding [2] was “no binding”, the binding [3] was “no binding” and the binding [4] was “binds”. The binding [5] was “binds”, the binding [6] was “binds” and the binding [7] was “binds”.

B3: His-PTPN22 (protein, UniProt Q9Y2R2 1-807)
chain: B1 chain
In the case of B3, the binding [8] is reported as “binds”.

B4: PTPN22 (protein tyrosine phosphatase non-receptor type 22) (protein, UniProt Q9Y2R2 1-807)
chain: B1 chain
With B4 the binding [9] was “binds”.
